In PubChem BioAssay AID1794842 (National Center for Advancing Translational Sciences (NCATS), 2023):
Hit rate of the full screen: of about 2,800 compounds, fewer than 10 were called active. Calls follow the shape of the dose curve; as a rule, active = well fitted curve in the direction sought with a large enough effect; inconclusive = small, poorly fitted or top-dose-only effect, or another doubt; inactive = no such curve, though single readings can be large or run the other way. The list shows a part of the results.

target: Metallo-beta-lactamase type 2 (Klebsiella pneumoniae) (UniProt C7C422); assay: qHTS to identify inhibitors of the New Delhi Metallo-beta-lactamase (NDM): Meropenem screen against the machine-based learning selections.; also: % of control where 0% means no effect; conditions: Purified NDM-1, meropenem hydrolysis, absorbance 300 nm; at 38.4 µM (top of the series) unless noted
Chain of UniProt C7C422 (C7C422 whole entry, looked up): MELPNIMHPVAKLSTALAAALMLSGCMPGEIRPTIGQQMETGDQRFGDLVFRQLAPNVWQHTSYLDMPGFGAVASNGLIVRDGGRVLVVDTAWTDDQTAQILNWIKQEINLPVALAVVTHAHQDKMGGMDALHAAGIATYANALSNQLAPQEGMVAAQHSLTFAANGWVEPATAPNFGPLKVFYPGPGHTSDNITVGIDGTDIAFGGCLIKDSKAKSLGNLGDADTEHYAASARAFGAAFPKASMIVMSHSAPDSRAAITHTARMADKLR
How it was run: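 NDM-1 (2 nM final) in 50 mM HEPES pH 7.0, 1 uM Zn2SO4, 0.01% Tween20 was preincubated with compounds for >30 min. Nitrocefin (16.7 uM final) was read at 485 nm after 15 min, and meropenem (50 uM final) at 300 nm after 30 min.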

Activity change, negative = inhibition, inactive:
N[C@H]1CN(C(=O)c2sccc2Cl)C[C@@H]1C1CC1 -1.46%, C[C@]1(CO)[C@H]2Cc3sc(NC(=O)c4ccnc(Cl)c4)nc3[C@@H](CC(=O)NCc3ccco3)[C@]2(C)CC[C@H]1O 2.38%, COc1ccc(F)c(-c2nc(CN(C)C(C)c3cccs3)c(C)o2)c1 (stereo unspecified) -1.88%, COCC(=O)N[C@H]1CC[C@]2(C)CC[C@@H](C(C)C(=O)NC3CC3)[C@H](O)[C@H]2[C@@H]1C (stereo partly specified) 0.573% [at 57.5 µM], Cc1cccc(CC(=O)N2CCC(n3cc(-c4nc(-c5ccccc5)no4)nn3)CC2)c1 -0.561%, CCCc1ccc2oc(C(=O)N(CC)Cc3ccncc3)c(C)c2c1 2.74%, Fc1ccc(-c2nnc3ccc(NCCc4ccccn4)nn23)nc1 49.6% [at 57.5 µM], O=C1CCCN1CCCN1C(=O)[C@@H]2C[C@@H](O)CN2C2(CN(C3CCC(F)(F)CC3)C2)C1=O 0.305%, Cc1ccc(C(=O)NC2CCCN(c3cc(N(C)C)ncn3)C2)s1 (stereo unspecified) -1.15%, C#CCNC(=O)CC[C@H]1CNC(=O)[C@@H]2[C@@H](CCN2Cc2ccc(C(F)(F)F)cc2)N1C 0.773%, CC1(CCCCc2ccccc2)COc2ccc(C(=O)NCc3cnccn3)cc2N1 (stereo unspecified) 1.37% [at 57.5 µM], CN(C)CCNC(=O)Cc1c[nH]c2ncc(-c3ccccc3)cc12 0.849% [at 57.5 µM], Cc1ccc(CN2CCC(Oc3ccc4ncccc4c3)(C(=O)O)CC2)o1 7.47%, O=C(N[C@H]1C[C@H]2C(=O)NC[C@@H](CCC(=O)N3CCCCC3)N2C1)c1ccco1 9.56% [at 57.5 µM], O=C1CCN(S(=O)(=O)c2ccccc2)CCCN(C2CCCCCC2)CCN1 -0.0766%, O=C(Nc1ccccc1)O[C@@H]1CO[C@H]2[C@@H]1OC[C@@H]2NCc1ccccc1 -0.569% [at 57.5 µM], Cc1nc2ccc(C(=O)N3C[C@@H](CN4CCCCC4)[C@@H](CO)C3)cc2s1 -1.06%, c1cncc(-c2nc3c(c(NCc4ccccc4-n4ccnc4)n2)CNC3)c1 55.4%, COCCC(=O)N1CC[C@H](c2nc3ccccc3o2)C1 -0.767% [at 76.7 µM], CCn1cc(S(=O)(=O)N2CCC3(CC2)CN(Cc2ccc(OC)cc2)C3=O)cn1 2.84%, Cc1[nH]cnc1CN1CCNc2cc(Nc3ccccc3)ncc2C1 12.8% [at 57.5 µM], Cc1cccc(CN2CCNc3cc(Nc4cccnc4)ncc3C2)c1 6.89% [at 57.5 µM], O=C(CCc1nc2ccccc2s1)N[C@H](c1ccccn1)C1CC(O)C1 (stereo partly specified) 0.35%, Cc1nc(C(=O)NC2CC(c3cc(N4CCC(O)C4)ncn3)C2)cs1 (stereo unspecified) 4.51%, O=C(Cc1ccccc1)N1CCNc2cnc(Nc3ccccc3)nc2C1 9.53% [at 57.5 µM], CCn1ncc(N2CCC(NC(=O)c3ccccc3OC)CC2)cc1=O 6.48%, CC(C)CS(=O)(=O)Nc1ccc([C@H]2OCC(=O)N(Cc3ccc(F)cc3)[C@@H]2CO)cc1 0.948%, CC(C)NC(=O)NCC1(COc2ccccc2)C[C@@H](O)[C@@H](O)C1 (stereo partly specified) 0.467% [at 57.5 µM], Cc1nc(NCc2ccc(C(=O)N3CCCCC3)cc2)cc(C2CC(N)C2)n1 (stereo unspecified) 31.9%, CCNC(=O)c1ccccc1-c1ccc(O)cc1 1.08%, OC1CC(c2cc(NCCCn3ccc4ccccc43)ncn2)C1 (stereo unspecified) -0.0871%, CNS(=O)(=O)CCNc1nccc(-c2cc(C(=O)O)ccn2)n1 27.4%, NS(=O)(=O)c1ccc(-n2nc(-c3ccncc3)nc2C2CCOC2)cc1 (stereo unspecified) -0.257%, CN1CCC(NC[C@H]2COCc3nc4cc(S(C)(=O)=O)ccc4n32)CC1 1.43% [at 57.5 µM], CN(Cc1ccc2nonc2c1)C(C(=O)O)c1ccc(-c2ccn[nH]2)cc1 (stereo unspecified) 48%, COC[C@H]1C[C@@H](NS(=O)(=O)c2cccc(F)c2)[C@H](O)[C@@H]1O 0.63% [at 57.5 µM], O=C(NCc1nc(-c2ccncc2)n[nH]1)[C@H]1CCC[C@H](O)C1 -0.451%, O=C(Nc1ccccc1)O[C@@H]1CO[C@H]2[C@@H]1OC[C@@H]2NS(=O)(=O)c1cccc2cccnc12 0.561%, O=c1cc(-c2ccccn2)oc2c(Nc3cccnc3)nccc12 28.9% [at 57.5 µM], COC(C)c1ccc(-c2cc(C(=O)O)cc(S(=O)(=O)NC(C)C)c2)cc1 (stereo unspecified) 1.58%, CCC1C(=O)N(C)CCN1C(=O)c1coc(COc2ccc3c(c2)OCO3)n1 (stereo unspecified) -1.14%, c1ccc(Nc2cc3c(cn2)CN(Cc2ccc4[nH]ccc4c2)CCN3)cc1 3.66% [at 57.5 µM], Cc1ccccc1N(C)C1CN(Cc2ccccc2)C1 -0.354% [at 57.5 µM], CC(C)(CO)CNC(=O)c1cnc2c(c1)N([S+](=O)([O-])c1cccnc1)CCC2 2.99% [at 57.5 µM], COCCN1CCC(CN(Cc2ccncc2)C(=O)c2cnco2)CC1 4.75%, O=C(Nc1cccnc1)c1ccnc(-c2nnc3ccc(Nc4ccccc4)nn23)c1 28.9% [at 57.5 µM], CCCOc1ccccc1C(=O)N1CC[C@H](N(C)C)[C@H](CCC(=O)O)C1 -2.23%, NC(=O)CO[C@@H]1CO[C@H]2[C@@H]1OC[C@@H]2NC(=O)NCc1ccccc1 -0.0049% [at 57.5 µM], O=C1N(CC2CCC2)CCCC12CCN(Cc1ccc(-c3ccn[nH]3)s1)C2 (stereo unspecified) 3.33%, O=C1NCCCCCN(C(=O)NC2CCCCC2)[C@H]2CCCC[C@@H]12 -2.93%, O=C(c1ccoc1)N1CCCn2cc(-c3ccccc3)nc21 5.25%
